The list shows a part of the results. The main result of the screen is listed elsewhere. These columns were measured beside it and carry no call.
Biological target: GTPase KRas (Homo sapiens) (UniProt P01116)
Test: Fragment capture on engineered cysteines, share of protein labelled (AID 2202238)
Parameters: protein at 5 µM with 500 µM competing thiol for 1.5 h
Settings: KRAS G12D cysteine mutants, disulfide tethering, MALDI-TOF labeling, stronger effect = higher value, fragment at 500 µM
[1] = measured here: G60C mutant labeling
[2] = measured here: G75C mutant labeling
[3] = measured here: H94C mutant labeling
[4] = measured here: I36C mutant labeling
[5] = measured here: L120C mutant labeling
[6] = measured here: M67C mutant labeling
[7] = measured here: M72C mutant labeling
[8] = measured here: N26C mutant labeling
[9] = measured here: N86C mutant labeling
[10] = measured here: P121C mutant labeling
[11] = measured here: S122C mutant labeling
[12] = measured here: S136C mutant labeling

Chain of UniProt P01116 (P01116 whole entry, looked up, the tested form may be a part): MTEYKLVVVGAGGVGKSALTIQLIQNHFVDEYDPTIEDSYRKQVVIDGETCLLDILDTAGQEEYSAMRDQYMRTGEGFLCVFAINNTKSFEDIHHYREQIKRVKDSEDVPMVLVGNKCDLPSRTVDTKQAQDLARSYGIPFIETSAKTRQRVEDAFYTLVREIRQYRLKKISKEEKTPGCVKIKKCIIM

| SMILES | percent labeling [1] [%] | percent labeling [2] [%] | percent labeling [3] [%] | percent labeling [4] [%] | percent labeling [5] [%] | percent labeling [6] [%] | percent labeling [7] [%] | percent labeling [8] [%] | percent labeling [9] [%] | percent labeling [10] [%] | percent labeling [11] [%] | percent labeling [12] [%] |
| --- | --- | --- | --- | --- | --- | --- | --- | --- | --- | --- | --- | --- |
| O=C(Cn1cnc(-c2ccccc2)n1)NCCS | 26.5 | 5.1 | 23 | 25 | 41.6 | 36.8 | 21.7 | 28.5 | 15.9 | 28.8 | 24 | 32.6 |
| O=C(NCCS)c1csc(C2CCCO2)n1 (stereo not drawn) | 34.7 | 18.6 | 37.3 | 26.6 | 39.3 | 31.5 | 35.3 | 39.5 | 20.8 | 28.6 | 31.3 | 52.6 |
| COc1ccc(Br)c(C(=O)NCCCNC(=O)CCS)c1 |  | 11.5 | 29.9 | 28.9 | 35.3 | 29.8 | 26.3 |  | 25.4 | 30.1 | 34.8 | 50.1 |
| O=C(CCS)NC1CCN(c2nc(Cl)ncc2F)C1 (stereo not drawn) |  | 11.5 | 36.5 | 46.1 | 31.8 | 50.1 | 26.2 |  | 37.1 | 33.3 | 28.5 | 51.4 |
| CCCc1noc(-c2cccc(CNC(=O)CCS)c2)n1 |  | 15.3 | 25.3 | 29.8 | 18.7 | 25.6 | 36.4 |  | 21.5 | 21.9 | 19.8 | 38.8 |
| O=C(NCCS)C1CCCN1c1ncc(C(F)(F)F)cc1Cl (stereo not drawn) | 38.5 | 14.1 | 45.9 | 7.9 | 17.4 | 13.5 | 21.8 | 21.2 | 11.4 | 12.5 | 9.2 | 18.7 |
| CC(CC(=O)NCCS)N1CCc2ccccc21 (stereo not drawn) | 23.9 | 0 | 6.8 | 3.2 | 11.9 | 10.1 | 3.3 | 8.5 | 0 | 12.2 | 3.7 | 3.6 |
| O=C(CCS)N1CCc2[nH]c3ccc(F)cc3c(=O)c2C1 |  | 12.1 | 30.3 | 37.3 | 26 | 32.8 | 41.5 |  | 22.5 | 26.7 | 21.7 | 55.8 |
| O=C(CCS)N1CCN(Cc2nc3ccsc3c(=O)[nH]2)CC1 |  | 19.3 | 27.3 | 31.2 | 23.6 | 41.8 | 18.8 |  | 25.6 | 30.2 | 27.1 | 52.8 |
| CCn1ncnc1-c1ccc(C(=O)NCCS)cc1 | 42.1 | 20.7 | 31.8 | 27.3 | 41.3 | 36.3 | 43 | 42.7 | 31.9 | 31.6 | 30.8 | 47.9 |
| O=C(CCS)NC1CCc2sc(Cl)cc21 (stereo not drawn) |  | 14.7 | 33.1 | 26.9 | 19.3 | 22.3 | 31.8 |  | 16.9 | 24 | 19.2 | 44 |
| O=C(NCCS)C1CCN(S(=O)(=O)c2ccc(F)cc2Cl)CC1 | 15.9 | 7.8 | 10.4 | 10.2 | 13.4 | 11 | 22.6 | 26.1 | 8.1 | 10.5 | 8.8 | 14.8 |
| Cc1nn(CCO)cc1CNC(=O)CCS |  | 8.2 | 29.7 | 38 | 29.4 | 34 | 16 |  | 16.8 | 33.7 | 37.6 | 44.9 |
| O=C(NCCS)C1(C(F)(F)F)CCCCO1 (stereo not drawn) | 38.7 | 16.8 | 32.2 | 22.3 | 36 | 25 | 26.5 | 32.3 | 37.9 | 32.5 | 32 | 37.6 |
| O=C(NCCS)c1c[nH]cc1-c1cc(Cl)c2c(c1)OCCO2 | 34.1 | 26.8 | 29.7 | 7.9 | 18.9 | 13.9 | 38.8 | 15.6 | 6 | 9.7 | 4.1 | 10 |
| O=C(NCCS)c1ncsc1-c1ccccc1 | 47.9 | 21.3 | 36.5 | 16.2 | 31.2 | 21.9 | 37 | 35.8 | 23.5 | 23.2 | 13 | 34.7 |
| O=C(NCCS)c1cc(-c2ccc3c(c2)OCO3)n[nH]1 | 17.9 | 14.9 | 10.5 | 8.3 | 20.2 | 6.1 | 59.5 | 28.5 | 13 | 11 | 11.1 | 15.9 |
| CCn1cc(C(=O)NCCS)c(C(F)(F)F)n1 | 58.3 | 18.2 | 35 | 23.5 | 41.4 | 32.5 | 33.8 | 40.2 | 38.5 | 32.3 | 35.9 | 44.3 |
| O=C(NCCS)c1cc(N2CCNC2=O)c(F)cc1F | 39.6 | 15.6 | 40.5 | 25.4 | 44.1 | 34.4 | 28.3 | 41 | 32.3 | 31.7 | 32 | 63.2 |
| O=C(NCCS)c1cc(Oc2cccc(Br)c2)ccn1 | 15.2 | 9.9 | 8.6 | 3.6 | 9.3 | 6.1 | 42.7 | 18.6 | 7.9 | 7.8 | 3.2 | 5.5 |
| CN(C)Cc1cnn2c1CN(C(=O)CCS)CC2 |  | 11.9 | 28.1 | 48 | 26.4 | 38.9 | 19.8 |  | 13.9 | 28.1 | 29.2 | 50.2 |
| O=C(CCS)NCc1ccc2cnccc2c1 |  | 13.9 | 22.7 | 29.6 | 24.5 | 40.2 | 28.6 |  | 22.1 | 30.3 | 24.6 | 40.3 |
| O=C(CCS)Nc1ccc(-c2cn3ccsc3n2)cc1 |  | 4.2 | 5.6 | 18 | 9 | 8.9 | 34.6 |  | 4 | 7.5 | 6.6 | 16.3 |
| O=C(CCS)NC1Cc2[nH]ncc2C(C(F)(F)F)C1 (stereo not drawn) |  | 16 | 39 | 37.7 | 33.9 | 38.4 | 30.8 |  | 33.1 | 34.9 | 32.8 | 54.4 |
| Cc1cc(=O)cc(C)n1CCCC(=O)NCCS | 20.9 | 8 | 25 | 22.6 | 24.2 | 26.9 | 9.7 | 28.8 | 17.3 | 24.3 | 20.2 | 30.9 |
| Cc1cc(N2CCC(N(C)C(=O)CCS)CC2)nc(C)n1 |  | 15.1 | 38.2 | 36.2 | 30.5 | 50.3 | 24 |  | 30.3 | 30.8 | 33.4 | 62 |
| Cn1cc(-c2cc(C(F)(F)F)nn2CCCNC(=O)CCS)cn1 |  | 12.5 | 30.4 | 39.6 | 20.2 | 25.9 | 23.4 |  | 18 | 25.8 | 25.9 | 53.2 |
| O=C(CCS)N1CCC(Cc2cccc(F)c2)CC1 |  | 16.8 | 26.8 | 21.4 | 24.2 | 32.5 | 38.7 |  | 21.2 | 27.4 | 19.8 | 50 |
| O=C(CCS)Nc1cccnc1Oc1ccccc1 |  | 11.3 | 25.6 | 18.6 | 24.4 | 24.1 | 22.8 |  | 6.7 | 25.1 | 22.3 | 63.5 |
| CN1CCn2nc(NC(=O)CCS)cc2C1 |  | 11.2 | 23.7 | 25.9 | 33.6 | 31.1 | 25.3 |  | 22.6 | 29.5 | 33.5 | 43.5 |
